In all, about 110,000 compounds were measured (“z-score”: median about -0.1, highest 2% from about 2 on). Some of the results follow. The source made the active and inactive calls.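 How the source made its calls: active means z-score in the third read window above 3 or below -3; inactive means the rest.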

In this test the target is Metabotropic glutamate receptor 8 (Rattus norvegicus) (UniProt P70579). Put plainly: rat mGluR8 modulators via GIRK flux, primary screen, cell-based, thallium flux, HTS (AID 488969). As to conditions: HEK293 rat mGluR8, GIRK (G protein-gated inwardly rectifying potassium channel) thallium flux, FluoZin2; at 10 µM; stronger effect = higher value; submaximal glutamate (EC20) added with thallium.
Chain of UniProt P70579 (P70579 whole entry, looked up): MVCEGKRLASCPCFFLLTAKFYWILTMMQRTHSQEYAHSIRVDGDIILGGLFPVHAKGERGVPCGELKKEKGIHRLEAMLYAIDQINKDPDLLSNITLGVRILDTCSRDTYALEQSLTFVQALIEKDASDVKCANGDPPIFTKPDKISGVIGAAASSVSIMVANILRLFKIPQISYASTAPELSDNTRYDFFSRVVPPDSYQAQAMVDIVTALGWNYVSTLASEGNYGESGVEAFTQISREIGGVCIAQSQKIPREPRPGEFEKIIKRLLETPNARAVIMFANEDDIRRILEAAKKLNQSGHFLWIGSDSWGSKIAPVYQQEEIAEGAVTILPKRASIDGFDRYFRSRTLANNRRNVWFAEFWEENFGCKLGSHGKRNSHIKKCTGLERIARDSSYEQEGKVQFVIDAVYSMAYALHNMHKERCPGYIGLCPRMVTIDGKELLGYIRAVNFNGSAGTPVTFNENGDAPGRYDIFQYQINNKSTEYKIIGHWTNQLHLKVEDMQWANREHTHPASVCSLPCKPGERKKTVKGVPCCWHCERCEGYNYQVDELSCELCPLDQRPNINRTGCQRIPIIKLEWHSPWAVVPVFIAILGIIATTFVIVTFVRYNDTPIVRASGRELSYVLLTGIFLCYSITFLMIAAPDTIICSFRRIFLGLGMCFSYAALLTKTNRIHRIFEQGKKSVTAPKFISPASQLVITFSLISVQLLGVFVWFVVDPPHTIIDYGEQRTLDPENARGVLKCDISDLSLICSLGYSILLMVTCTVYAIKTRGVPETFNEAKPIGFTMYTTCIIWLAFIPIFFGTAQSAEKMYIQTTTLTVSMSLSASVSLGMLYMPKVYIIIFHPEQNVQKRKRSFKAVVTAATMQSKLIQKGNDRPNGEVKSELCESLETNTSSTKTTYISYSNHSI
For the compound `CN1CCN(C(=O)c2cc3sccc3n2CC(=O)c2ccccc2)CC1`, the z-score is -0.0487. For the compound `CCOC(=O)c1cnc2ccc(C)cc2c1Sc1ccccc1`, the z-score is -0.189. In the case of `Cc1ccc(CNC(=O)CC2C(=O)Nc3c2c(=O)n(C)c(=O)n3Cc2ccccc2)cc1` (stereo not given) it was -0.159; in that of `CSc1n[nH]c(NCc2ccc(Cl)cc2)n1`, 0.551.

On to `O=C(O)CC(=O)Nc1ccccc1C(=O)O`, for which the z-score was 0.01. Consider `CC(C)c1cc(C(C)C)c(S(=O)(=O)NNC(=O)c2ccncc2)c(C(C)C)c1`, for which the z-score is -0.268.

Compound `COc1ccccc1CNc1ncnc2c1nnn2Cc1ccccc1` gave a z-score of 0.134. With `Cc1c(C(=O)NCCC2=CCCCC2)cccc1[N+](=O)[O-]`, the z-score was -0.0641. For `CCC(C)c1cc(S(=O)(=O)N2CCOCC2)ccc1OC` (stereo not given), the z-score is -0.586.

With `Cc1cc(C(F)(F)F)nn1-c1nc(-c2ccco2)cc(C(F)(F)F)n1`, the z-score worked out at 0.709.

On to `NC(=O)c1ccc(NC(=O)C2CCCO2)cc1` (stereo not given), for which the z-score was found to be 0.181. The value for `CC1CCCC(C)N1C(=O)CSc1nnc(-c2cccs2)o1` (stereo not given) was -0.0409; that for `O=C(NCCO)c1nc(NCCO)c2ccccc2n1` was -0.268; that for `CC1CCCCN1S(=O)(=O)c1ccc(NC(=O)c2cccs2)cc1` (stereo not given) was -0.377. The value for `CC(=O)NCCNC(=O)CCNC(=O)c1ccc(Cl)cc1` was -0.00998; that for `CCC(c1nnnn1C(C)(C)C)N1CCN(C2CCCC2)CC1` (stereo not given) was 0.224. On to `CC(C)Cc1nc(N2CCN(C(=O)c3ccco3)CC2)c(C#N)c2c1CCC2`, for which the z-score is -0.385. `O=C(Nc1ccc(Cl)c(Cl)c1)Nc1cc(S(=O)(=O)N2CCOCC2)ccc1N1CCCC1` returned a z-score of 0.00467. Compound `COCCSc1ccccc1C(=O)NCc1ccc2c(c1)OCO2` displayed a z-score of 0.622. As to `COC(=O)C1=C(C)NC(=O)C1(NS(=O)(=O)c1ccc(C)cc1)C(F)(F)F` (stereo not given), the z-score is -0.144. Turning to `O=C(CNC1CCCCCC1)c1cccs1`, the z-score was -0.0287.

As to `CCc1nnc(NC(=O)CSc2nnc(Cc3ccccc3)o2)s1`, the z-score is -0.2. Consider `CCOC(=O)c1c(NC(=O)c2ccco2)sc2c1CCCCC2`, for which the z-score is -0.506.

`CC(C)SCCCOc1ccc(C(C)(C)C)cc1` yielded a z-score of 0.0236. `CSc1ccccc1NC(=O)c1noc2c1CCC2`: the z-score was -0.51. The value for `COc1ccccc1NC(=S)N1C2CCC1CC(NC(=O)NC13CC4CC(CC(C4)C1)C3)C2` (stereo not given) was -1.59. As to `Cc1cc(NC(=O)c2ocnc2C)no1`, the z-score came to 0.00862.

`CSc1nc2ccccc2n1Cc1c(Cl)cccc1Cl`: the z-score is -0.261. On to `O=C(O)c1ccc(-n2c(-c3ccccc3)n[nH]c2=S)cc1`, for which the z-score was 0.205. Compound `CC1CN(C(=O)COC(=O)[C@@H]2CC(O)CN2S(=O)(=O)c2ccc3c(c2)OCCO3)CC(C)O1` (stereo not given in full) displayed a z-score of 0.119.

Regarding `CC(C)c1ccc(/C=C(/C#N)c2nnc(NC(=O)c3ccccc3)s2)cc1`, the z-score was -0.368.

In the case of `Cc1cc(=O)oc(C)c1C(=O)NCC1CCCO1` (stereo not given), the z-score was -0.0129. Take `CCN(CC)C(c1ccc(F)cc1)c1nnnn1CC1CCCO1` (stereo not given): the z-score was determined as 0.155. As to `COC(=O)C1=C(C)Nc2ncnn2C1c1ccco1` (stereo not given), the z-score is -0.221. On to `COc1cc(-c2noc(CCCC(=O)NCc3ccccc3)n2)cc(OC)c1OC`, for which the z-score stood at 0.322.

On to `O=C(CCc1ccccc1)Nc1nncs1`, for which the z-score is -0.0191. In the case of `O=C(CNC(=O)/C(=C\c1ccc(F)cc1)NC(=O)c1ccccc1)OCc1ccccc1` it was -0.0481; in that of `Cc1ccc(-c2nn(C)c(=O)c3ccccc23)cc1S(=O)(=O)N1CCCC1`, -0.238; in that of `COc1ccc(/C=N/OCC(=O)N2CC3(C)CC2CC(C)(C)C3)cc1` (stereo not given), -0.154. The value for `COc1cc2[nH]c3c(N4CCN(c5ccccn5)CC4)ncnc3c2cc1OC` was -0.28. Consider `O=C(c1ccco1)N1C2C=CC(C2)C1(C(F)(F)F)C(F)(F)F` (stereo not given), for which the z-score came to 0.144. Turning to `CCCCSc1nc2sc3c(c2c(=O)[nH]1)CCC3`, the z-score came out at 0.338. As for `C/C(=C\C(=O)c1ccc(Br)cc1)N1CCCCC1`, the z-score is -0.646.

Turning to `O=C(C1=C(O)C(=O)N(CCN2CCOCC2)C1c1cccnc1)c1cc2ccccc2o1` (stereo not given), the z-score was found to be 0.521. `CCOc1ccc(N/C(C)=C/C(=O)c2ccc(C)o2)cc1` showed a z-score of 0.126.

Turning to `Cc1ccc(NS(=O)(=O)c2ccc(CCC(=O)NCCO)cc2)cc1`, the z-score is -0.659. As to `Cc1ccc(N2C(=O)c3oc4ccccc4c(=O)c3C2c2cccc(O)c2)nc1` (stereo not given), the z-score is -0.485. As to `CCN(CC)C(=O)CN(c1ccc(C)cc1)S(=O)(=O)c1ccc(SC)cc1`, the z-score was -1.31. Consider `CCOC(=O)N1CCN(C(=O)COc2ccccc2OC)CC1`, for which the z-score worked out at 0.191. Turning to `CCN1CC=C2C(C#N)=C(N)C(C#N)(C#N)[C@H](c3ccoc3)[C@H]2C1`, the z-score is -0.115. As to `COc1cccc(C2C(C(=O)c3sc(C)nc3C)=C(O)C(=O)N2CCN2CCOCC2)c1OC` (stereo not given), the z-score is -0.182. `CC1CCC(NC(=O)C2CCC(CNS(=O)(=O)c3cccc4nsnc34)CC2)CC1` (stereo not given): the z-score is -0.141. In the case of `Cc1cccc(C)c1OCC(=O)Nn1c(C)nc2ccccc2c1=O` it was -0.0405; in that of `CSc1nc(C)cc(-n2cc(F)c(=O)[nH]c2=O)n1`, 0.229; in that of `CC(=O)n1nc(-c2cccc(C)c2)nc1SCC(=O)Nc1ccccc1`, -0.411. The value for `COc1cccc(C=Nc2ccc(C)c(F)c2)c1O` was -0.642. On to `COc1ccccc1NC(=O)N1CCN(c2ccc(F)cc2)CC1`, for which the z-score came to 0.16.

`Cc1cc2c(c(=O)n1C)C(C(C)C)C(C#N)=C(N)O2` (stereo not given) came in with a z-score of 0.185. `Cc1ccc(-n2c(=O)cc(N3CCN(Cc4ccccc4)CC3)[nH]c2=O)cc1`: the z-score was -0.339. In the case of `Cc1ccc(O)c(NC(=O)c2cc3nc4c(c(C(F)(F)F)n3n2)CCc2ccccc2-4)c1`, the z-score is -0.113. Regarding `CN1CCN(C(=S)Nc2cc([N+](=O)[O-])ccc2Cl)CC1`, the z-score was -0.223. In the case of `CCN(CC)c1ccc(NC(=O)/C=C\c2ccccc2Cl)cc1` it was -0.341; in that of `CCOC(=O)C(=CNc1ncccc1C)C(=O)OCC`, -0.543; in that of `Cc1ccc(C)c(S(=O)(=O)N2CCN(C(C(=O)Nc3ccc(F)cc3)c3ccccc3)CC2)c1` (stereo not given), 0.0839. For the compound `CSc1nc(-c2ccco2)nn1S(=O)(=O)c1ccccc1`, the z-score came to 0.0248. Turning to `O=C(NC1CCCCC1)C(Cc1ccccc1)N1C(=O)C2C3CCC(C3)C2C1=O` (stereo not given), the z-score is -0.0883. The value for `Cc1ccc(O)c(CNc2ccccn2)c1` was 0.0906. The value for `O=c1c2c(nc3n1CCCCC3)-c1ccccc1CC21CCCCC1` was 0.0952. As to `O=C(NNC(=O)c1cccnc1SCc1cccc([N+](=O)[O-])c1)c1cccnc1`, the z-score was active: -5.85. In turn, `O=C(c1ccc(N2C(=O)CCC2=O)cc1)N1CCN(c2ccccc2)CC1` returned a z-score of 0.218. `COc1cccc(-c2nnn(C/C(N)=N/O)n2)c1`: the z-score was -0.115. Consider `CCOc1ccc(C(=O)Nc2ccc(NC(=O)c3ccco3)c(Cl)c2)cc1Br`, for which the z-score is -0.104. Regarding `CCOc1ccccc1C(=O)NC1CCN(Cc2nnnn2C2CCCC2)CC1`, the z-score is -0.65.

In turn, `O=C(CCCN1C(=O)c2cccc3cccc(c23)C1=O)N1CCN(c2ccccn2)CC1` registered a z-score of 0.0204. Regarding `Cc1cc(/C=C2/SC(=O)N(CC(=O)OC(C)C)C2=O)c(C)n1C`, the z-score is -0.555. The value for `CCC(=O)N1CCN(c2ccccc2NC(=O)c2ccc(OC)c(Cl)c2)CC1` was -0.323; that for `FC(F)(F)c1cccc(NC(=S)N2CCN(c3cccc(C(F)(F)F)c3)CC2)c1` was -0.191; that for `COc1ccc2[nH]c(=O)c(CN(Cc3cccs3)S(=O)(=O)c3cccc4nsnc34)cc2c1` was 0.0513. In the case of `COc1ccc(C2C(C#N)=C(N)N(c3ccccc3)C3=C2C(=O)CCC3)cc1Cn1cc([N+](=O)[O-])cn1` (stereo not given), the z-score is -0.119. In turn, `CCNc1nc(NCC)nc(OCCNS(=O)(=O)c2cc(C)ccc2C)n1` came in with a z-score of 0.22. In the case of `Cc1csc(NC(=O)CSc2nnc(Cn3c(=O)sc4ccccc43)n2-c2ccccc2)n1` it was 0.298. For `CCOC(=O)Nc1ccc2c(c1)Nc1ccccc1S2`, the z-score is -0.571. Turning to `CC1(C)CC(=O)C(C(C2=C(O)CC(C)(C)CC2=O)c2ccc(Br)s2)C(=O)C1` (stereo not given), the z-score was -0.495. As for `O=C1c2ccccc2N2C(=O)c3ccccc3[C@H]2N1c1ccccc1`, the z-score was -0.361.

`O=C(N1CCOCC1)N1CCC(n2nnc3cc(F)ccc32)CC1`: the z-score is 0.107. Consider `Cc1occc1C(=O)Nc1nccs1`, for which the z-score is -0.178. In the case of `CCC(C)(C(=O)NC1CCCCC1)N(C(=O)c1ccccn1)c1ccc(C)cc1` (stereo not given) it was -0.103. `O=C(CN1C(=O)c2cccnc2C1=O)c1ccccc1`: the z-score was -0.164. The value for `O=c1c2cc3c(=O)n(CC4CCCO4)c(=O)c3cc2c(=O)n1CC1CCCO1` (stereo not given) was 0.192; that for `O=C(NCc1cccs1)c1cc(-c2ccccc2)nc2ccccc12` was 0.193; that for `CCCc1cc(SCC(=O)Nc2c(C)n(C)n(-c3ccccc3)c2=O)n2c(nc3ccccc32)c1C#N` was -0.0712.

For the compound `C#CCn1cc(/C=N/NC(=O)c2cc3ccccc3o2)c2ccccc21`, the z-score was -0.24. Consider `N#Cc1ccc(C(=O)Nc2ccc(S(=O)(=O)NC3=NCCCCC3)cc2)cc1`, for which the z-score stood at 0.109. With `CCCNc1nc(OC(C(F)(F)F)C(F)(F)F)nc(OC(C(F)(F)F)C(F)(F)F)n1`, the z-score stood at 0.00419. The value for `COc1ccc(C2C(C(=O)c3ccco3)=C(O)C(=O)N2CCOCCO)cc1OC` (stereo not given) was -0.0423; that for `S=C(NNc1ccnc2cc(Cl)ccc12)Nc1ccccc1Cl` was -0.546; that for `CN(C)c1oc(-c2ccc(Cl)cc2)nc1S(=O)(=O)c1ccccc1` was -0.0312. Take `CCN1c2cccc3cccc(c23)S1(=O)=O`: the z-score was -0.163.

`Cc1cc2ccccc2c(=O)n1CC(=O)NCC(=O)N1CCN(c2ccccc2F)CC1` returned a z-score of 0.731.

In the case of `O=C(c1ccc(Cl)cc1)c1oc2ccccc2c1CS(=O)c1ccccc1` (stereo not given), the z-score is -0.623.

Compound `O=C(CC1(C(=O)O)CCCC1)N1CCOCC1` came in with a z-score of 0.113. On to `O=C(c1cc2ccccc2oc1=O)N(Cc1ccco1)Cc1cccs1`, for which the z-score was -0.741. As to `Cc1cc(=O)n2[nH]cc(C(=O)O)c2n1`, the z-score was -0.102. Turning to `COc1ccc(NC(=O)c2cc(-c3ccc(C)o3)nc3ccccc23)cc1OC`, the z-score was -0.371. With `Cc1ccc(C)n1-c1cc(S(=O)(=O)N2CCOCC2)ccc1N1CCCC1`, the z-score was -0.688. `Cc1ccc(-n2c(SCC(=O)Nc3ccc4c(c3)OCO4)nnc2-c2ccccn2)cc1` came in with a z-score of 0.123. For `CCOC(=O)C(=CNc1cc(C)nn1-c1ccccc1)C(=O)OCC`, the z-score was -0.935. In the case of `C=C1C2(C(=O)Nc3ccc(SC(F)F)cc3)CCC(C2)C1(C)C` (stereo not given) it was 0.546; in that of `O=C(Cc1ccccc1[N+](=O)[O-])NCc1ccccc1Cl`, 0.128. As to `O=C(C1CC1)N1CCC(C(O)(c2ccccc2)c2ccccc2)CC1`, the z-score was -0.37.
